The campaign covered roughly 220,000 compounds. About 16,000 (7.3%) were called active. Inconclusive results, whose numbers are uncertain, are shown with a selection of clear calls. Calls come from the whole dose curve; as a rule, active = well fitted inhibition curve with a large enough effect (not every such curve was filed as active); inconclusive = small, poorly fitted or top-dose-only effect, or another doubt; inactive = no such curve, though single readings can be large or run the other way. Potencies of inconclusive entries are left out as doubtful fits.
What follows are compounds tested against Aldehyde dehydrogenase 1A1 (Homo sapiens) (UniProt P00352) (assay: qHTS Assay for Inhibitors of Aldehyde Dehydrogenase 1 (ALDH1A1)). Settings: Purified ALDH1A1, NADH fluorescence, propionaldehyde substrate; series mostly up to 75.3 µM.
Chain of UniProt P00352 (P00352 whole entry, looked up): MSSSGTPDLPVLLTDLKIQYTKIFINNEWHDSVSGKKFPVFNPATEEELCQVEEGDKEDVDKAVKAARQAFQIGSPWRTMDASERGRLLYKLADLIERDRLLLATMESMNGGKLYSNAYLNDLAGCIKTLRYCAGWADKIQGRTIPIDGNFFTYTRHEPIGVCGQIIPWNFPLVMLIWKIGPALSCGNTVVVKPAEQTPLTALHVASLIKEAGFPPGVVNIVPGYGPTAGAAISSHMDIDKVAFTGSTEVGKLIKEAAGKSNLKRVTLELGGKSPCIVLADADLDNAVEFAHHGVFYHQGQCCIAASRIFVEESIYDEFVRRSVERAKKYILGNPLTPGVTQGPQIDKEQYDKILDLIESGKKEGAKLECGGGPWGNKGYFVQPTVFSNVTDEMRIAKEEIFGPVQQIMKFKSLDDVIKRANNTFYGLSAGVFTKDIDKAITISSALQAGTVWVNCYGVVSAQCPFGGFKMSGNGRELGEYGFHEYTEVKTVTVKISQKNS
With `COc1ccccc1OCc1nnc(SCC(=O)NCc2ccco2)n1Cc1ccco1` the Potency was inconclusive [inhibitor, single point]. For `O=c1nc2n(c3ncccc13)CCCCC2`, the Potency was “inactive”. In the case of `Cc1ccc(NC(=S)NC(=O)c2ccc(Br)o2)c(C)c1`, the Potency is reported as inconclusive [inhibitor, single point]. For `O=C(Cn1ncc2c(=O)oc3ccccc3c21)NCc1cccnc1`, the Potency was “inactive”. In the case of `Cc1ccc(NC(=O)CNc2ccc(Cl)c(Cl)c2)cc1S(=O)(=O)N(C)C`, the Potency is reported as inconclusive [inhibitor, single point]. With `CCNc1nc(NC(C)C)nc(N(C#N)CC(=O)OC)n1` the Potency was inconclusive [inhibitor, single point]. With `Cc1ncsc1CCSc1nc2ccccc2c(=O)n1C` the Potency was “inactive”. With `CCOc1ccccc1NC(=O)c1cccc(NC(=O)c2ccco2)c1` the Potency was “inactive”. `Cc1cc(C)nc(SCC2COc3ccccc3O2)n1` (stereo not drawn) was tested, and the Potency was “inactive”. With `COc1ccc(S(=O)(=O)NCC(=O)O)cc1C(=O)NC1CCCCC1` the Potency was “inactive”. In the case of `COc1cc(NC(=S)NCc2ccco2)cc(OC)c1`, the Potency is reported as inconclusive [inhibitor, single point]. For `S=c1[nH]nc(C2CCCCC2)n1/N=C/c1cccs1`, the Potency was active: 22.4 µM. In the case of `O=C(O)CCc1ccc(-c2ccccc2)n1CC1CCCO1` (stereo not drawn), the Potency is reported as inconclusive [inhibitor, partial curve]. With `O=C(NCc1ccccc1)C1=C[C@H](c2ccc(Br)cc2)C[C@H](OCc2ccc(CO)cc2)O1` the Potency was inconclusive [inhibitor, single point]. In the case of `COc1cc(N(C)C)c([N+](=O)[O-])cc1C(=O)NC(C)CNc1ccc([N+](=O)[O-])cc1Cl` (stereo not drawn), the Potency is reported as active: 1.58 µM. In the case of `CCC(c1nnnn1CCc1ccccc1)N(Cc1ccco1)Cc1cc2cccc(C)c2[nH]c1=O` (stereo not drawn), the Potency is reported as inconclusive [inhibitor, single point]. With `CC(=O)c1ccccc1C(=O)NCc1cccnc1` the Potency was “inactive”. In the case of `O=c1cnc2cnc(Oc3cccc(Cl)c3)nc2n1Cc1ccc(F)cc1`, the Potency is reported as “inactive”. `CC[C@H](C)[C@H](NC(N)=O)C(=O)Nc1ccc2c(c1)OCO2` was tested, and the Potency was “inactive”. In the case of `COc1ccccc1NC(=O)CSc1nnc(Cn2cnc3ccccc32)n1C`, the Potency is reported as inconclusive [inhibitor, single point]. With `COC(=O)c1sccc1NC(=O)COc1ccc(C)cc1` the Potency was inconclusive [inhibitor, single point]. For `COc1cccc(C(=O)N2CCN(Cc3cccc(F)c3)CC2)c1`, the Potency was active: 17.8 µM. In the case of `Cc1ccc(NC(=O)c2[nH]cnc2C(=O)NN)cc1`, the Potency is reported as “inactive”. `Cc1ccccc1OCC(=O)NCC(=O)OCC(=O)c1ccc2ccccc2c1` was tested, and the Potency was inconclusive [inhibitor, partial curve]. With `CCOC1(NC(=O)c2ccccc2)C(C)=CC(=O)C=C1C` the Potency was “inactive”. `COc1ccc(/C(C)=N/NC(=O)c2ccccc2OCc2ccccc2)c(OC)c1` was tested, and the Potency was “inactive”. With `CN(CC(=O)O)Cc1oc(CO)cc(=O)c1O` the activity, negative = inhibition was inactive: -3.09% [at 13.5 µM]. With `Cc1cc2c(C)nc3ccccc3c2o1` the Potency was inconclusive [inhibitor, single point]. With `CCN(CC)c1ccc2c(O)cc(=O)oc2c1` the Potency was inconclusive [inhibitor, single point]. `Fc1ccc(CNC(=S)Nc2ccc(Cl)cc2)cc1` was tested, and the Potency was “inactive”. For `Cc1cccc(Nc2nnc(SCC(=O)Nc3ccc(C(=O)O)cc3)s2)c1`, the Potency was “inactive”. In the case of `CCN(CC)C(=O)C1CCN(c2ncnc3c2cnn3-c2ccc(C)cc2C)CC1`, the Potency is reported as active: 10 µM. In the case of `NC(N)=NC1=NC(=O)C(Cc2ccccc2)S1` (stereo not drawn), the Potency is reported as “inactive”. For `O=C(CSc1ccc(-c2ccco2)nn1)NCc1ccc(F)cc1`, the Potency was inconclusive [inhibitor, single point]. For `CCOC(=O)C1=C(O)/C(=C\c2ccc(CNC(=O)C(=O)Nc3ccc(C)c(C)c3)o2)N=C1C`, the Potency was “inactive”. With `Cc1nnc2sc(SCC(=O)Nc3ccc(Br)cc3)nn2c1=O` the Potency was inconclusive [inhibitor, partial curve]. With `Cc1ccc(NC(=S)NNC(=O)Cn2nc(C(F)F)cc2C(F)F)cc1` the Potency was inconclusive [inhibitor, single point]. `COC(=O)c1nc2ccc(C)cn2c1F` was tested, and the Potency was inconclusive [inhibitor, single point]. With `COc1cc(OC)c(C2C(C#N)=C(N)OC3=C2C(=O)CC(C)(C)C3)cc1OC` (stereo not drawn) the Potency was inconclusive [inhibitor, partial curve]. With `C=CCn1c(C)cc(C2=NNC(=NC(C)(C)C)SC2)c1C` the Potency was inconclusive [inhibitor, single point]. In the case of `COC(=O)c1sc2ccccc2c1C(=O)OC`, the Potency is reported as “inactive”. In the case of `Cc1ccc(-c2nnn(CC(=O)NCc3ccccc3)n2)c(-n2cnnn2)c1`, the Potency is reported as inconclusive [inhibitor, partial curve]. `COc1ccc(NC(=O)CNS(=O)(=O)c2cccc3nonc23)c(OC)c1` was tested, and the Potency was active: 12.6 µM. In the case of `O=C(NCc1ccccc1)NC1(C(=O)N2CCN3CCCC3C2)CCCCC1` (stereo not drawn), the Potency is reported as inconclusive [inhibitor, single point]. `Cn1c(=O)c(-c2ccc(Cl)cc2)nc2cnc(OCc3ccccc3)nc21` was tested, and the Potency was inconclusive [inhibitor, partial curve]. `Cc1ccc(C=Nc2ccccc2C(N)=O)cc1` was tested, and the Potency was inconclusive [inhibitor, full curve]. For `Cc1cc(C)c(C#N)c(SCc2ccccc2[N+](=O)[O-])n1`, the Potency was active: 17.8 µM. In the case of `CSc1nc(C)cc(NC(N)=O)n1`, the Potency is reported as “inactive”. `Cc1cc(C)c2[nH]c(=O)c(C(c3nnnn3Cc3ccc4c(c3)OCO4)N3CCC(C)CC3)cc2c1` (stereo not drawn) was tested, and the Potency was inconclusive [inhibitor, single point]. For `C=CCOC(=O)C1=C(C)NC(SCC(=O)Nc2nccs2)=C(C#N)C1c1cccs1` (stereo not drawn), the Potency was inconclusive [inhibitor, full curve]. With `O=C(NCCC1=CCCCC1)C(=O)c1c[nH]c2ccccc12` the Potency was inconclusive [inhibitor, partial curve]. `COc1ccc(NC(=O)c2cc(S(=O)(=O)N3CCCCC3)ccc2N2CCCCC2)cn1` was tested, and the Potency was inconclusive [inhibitor, partial curve, poor fit]. `Cc1ccccc1N1C(=O)c2cc(S(N)(=O)=O)c(Cl)cc2N[C@H]1C` was tested, and the Potency was inconclusive [inhibitor, single point]. `CC(=O)Nc1ccc(S(=O)(=O)Nc2nc3ccccc3nc2N2CCCC2)cc1` was tested, and the Potency was active: 11.2 µM. In the case of `O=C(Nc1ccc(N2CCOCC2)c(Cl)c1)c1cccc(F)c1`, the Potency is reported as inconclusive [inhibitor, single point]. With `Cc1ccc(NC(=O)CSc2nnc(Cn3cnc4ccccc43)o2)c(C)c1` the Potency was inconclusive [inhibitor, partial curve]. For `O=C(CSc1nccc(=O)[nH]1)N1N=C2/C(=C/c3ccco3)CCCC2C1c1ccco1` (stereo not drawn), the Potency was active: 14.1 µM. In the case of `O=C(Cc1cccs1)NNC(=S)NC(=O)c1ccc(F)c(F)c1`, the Potency is reported as inconclusive [inhibitor, single point]. With `Cc1cc(S(=O)(=O)NCc2ccco2)c(C)s1` the Potency was “inactive”. With `Cc1ccc(C(NC(=O)NCCCN2CCOCC2)=C(Cl)Cl)cc1F` the Potency was active: 0.398 µM. For `C/C(=N\NC(=S)NCCc1ccccc1)c1ccc(Cl)cc1`, the Potency was inconclusive [inhibitor, single point]. For `CN(C)c1ccnc2sc(C(N)=O)c(N)c12`, the Potency was inconclusive [inhibitor, single point]. With `CCCSc1ncnc2c1oc1ccccc12` the Potency was inconclusive [inhibitor, single point]. In the case of `CCC(C)NC(=S)Nc1ccccc1OC` (stereo not drawn), the Potency is reported as “inactive”. With `Nc1ccc2ncccc2c1N` the Potency was “inactive”. For `CCN(CC)S(=O)(=O)c1cccc(NC(=O)c2ccc(SC)cc2OC)c1`, the Potency was inconclusive [inhibitor, partial curve]. With `CCOc1ccc(-n2cnnn2)cc1S(=O)(=O)N1CCC(C)CC1C` (stereo not drawn) the Potency was “inactive”. For `Oc1ccccc1Nc1nc(NCC2CCCO2)c2ccccc2n1` (stereo not drawn), the Potency was inconclusive [inhibitor, single point]. `CCOCN(C(=O)Cn1cnc2ccccc21)c1c(C)cccc1CC` was tested, and the Potency was inconclusive [inhibitor, single point]. In the case of `COc1ccc(OC)c(-c2cc(C(=O)Nc3ccc(F)cc3F)no2)c1`, the Potency is reported as inconclusive [inhibitor, partial curve]. With `O=C(c1ccc(C(F)(F)F)cc1)C1CCCN(Cc2cccn2-c2ncccn2)C1` (stereo not drawn) the Potency was inconclusive [inhibitor, single point]. `Cc1ccc(NC(=O)CSc2n[nH]c(-c3ccncc3)n2)cc1C` was tested, and the Potency was inconclusive [inhibitor, single point]. In the case of `Cn1c(SC/C=C/c2ccccc2)nnc1-c1ccco1`, the Potency is reported as inconclusive [inhibitor, single point]. For `Cc1ccc2c(c1)c1c3n2CCN[C@H]3CCC1`, the Potency was “inactive”. `CCOC(=O)N1CCC(N(CCN(C)C)C(=S)Nc2cc(C)cc(C)c2)CC1` was tested, and the Potency was “inactive”. With `CC(C)(C)NS(=O)(=O)c1ccc(CCC(=O)Nc2ccc3c(c2)OCO3)cc1` the Potency was active: 0.178 µM. With `CN1CCc2cc(Cl)c(O)cc2[C@@H](c2ccccc2)C1` the Potency was “inactive”. `Nc1nc(-c2ccccc2)c(-c2ccccc2)s1` was tested, and the Potency was inconclusive [inhibitor, single point].
Potency is the fitted concentration of half-maximal effect; tags give direction and shape of the fitted curve.
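Throughout, for activity, negative = inhibition: plate controls were no enzyme wells and a reference inhibitor.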
